Laboratory results: the supplement of paper PMC10126150
Values marked as one replicate rest on one cluster of the flow cell; about a third of the high ones do not repeat.

Tested on: ATP
Experiment: switch fluorescence ratio, 500 uM ATP over buffer (Cy3 cluster intensity, sum of 5 cycles each) (fold (ratio)); higher = stronger signal-on switching upon ATP binding; sequences stand for … in TCGTCGGCAGCGTCAGATGTGTATAAGAGACAGTTTTTTTTTTTTTTTTTTTTTTTTT…TC
Settings: aptamer strand: ATP DNA aptamer (quencher-CACCTGGGGGAGTATTGCGGAGGAAGG + anchor), 100 nM annealed; ATP concentration: 500 uM; one replicate
Summary of the method: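 Cy3-labelled switching-strand clusters on a modified Illumina MiSeq flow-cell were annealed to 100 nM quencher-labelled ATP aptamer, imaged in selection buffer, then imaged after 15 min with 500 uM ATP at 22 °C. Five buffer/ATP cycles ran, with NaOH stripping and re-annealing between them. The fluorescence ratio is summed target-cycle over summed buffer-cycle Cy3 intensity per cluster, averaged per switch-domain sequence. Clusters outside 100-1000 RFU were excluded.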
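Also: ATP exposure 15 min at 22 °C before imaging.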

GGTGCCGGGA showed a switch fluorescence ratio of 0.957.
GGGCTCCGTG gave a switch fluorescence ratio of 0.791.
TGTCAGGCGG showed a switch fluorescence ratio of 0.954.
Sequence AAATCGAGGG has a switch fluorescence ratio of 1.06.
GCGGGGCCGT showed a switch fluorescence ratio of 1.06.
With TATGGTACGC the switch fluorescence ratio was 1.04.
In the case of GCGCGCCCTG, the switch fluorescence ratio is reported as 1.
GCCGCTCGAT gave a switch fluorescence ratio of 0.963.
GCCGGGCGTC showed a switch fluorescence ratio of 0.985.
Work on TTGGTCGACT yielded a switch fluorescence ratio of 1.02.
TGTTATGAAT showed a switch fluorescence ratio of 1.03.
In the case of AAATATTCAG, the switch fluorescence ratio is reported as 0.999.
With TTCGGCCTGT the switch fluorescence ratio was 0.981.
Sequence TTCTGTATCG has a switch fluorescence ratio of 1.02.
For GCACATATAG, the switch fluorescence ratio was 1.07.
In the case of TCTTTCAAAG, the switch fluorescence ratio is reported as 1.01.
TGCGTAACCG showed a switch fluorescence ratio of 1.01.
CTTACCGTG gave a switch fluorescence ratio of 1.04.
Work on AATCGTGGTC yielded a switch fluorescence ratio of 1.04.
For CACTTATCGA, the switch fluorescence ratio was 1.06.
For GTAATGACGT, the switch fluorescence ratio was 1.04.
With TGCTTATTCC the switch fluorescence ratio was 1.08.
For TACCGGGAGG, the switch fluorescence ratio was 1.
AATTTCCTTC showed a switch fluorescence ratio of 1.06.
For CAGGCTACTT, the switch fluorescence ratio was 1.
Sequence TGGTATACTT has a switch fluorescence ratio of 0.971.
Work on TTGATTGTAG yielded a switch fluorescence ratio of 1.
TCATTCTGTG showed a switch fluorescence ratio of 0.962.
Sequence AACTTACTGA has a switch fluorescence ratio of 1.2.
AATAACAGGG gave a switch fluorescence ratio of 1.08.
With GCGTTCAGAA the switch fluorescence ratio was 0.987.
With GTCCCGTCAG the switch fluorescence ratio was 1.05.
CTTTAATGGA gave a switch fluorescence ratio of 0.969.
Sequence CGGCGGCTCT has a switch fluorescence ratio of 0.946.
In the case of TCGTATAGGG, the switch fluorescence ratio is reported as 0.981.
AAGACTCGCT gave a switch fluorescence ratio of 1.03.
Work on ATGAGTCGCT yielded a switch fluorescence ratio of 1.04.
GAAAATGGCT was tested, and the switch fluorescence ratio was 1.06.
CGAGATACCT was tested, and the switch fluorescence ratio was 1.22.
For GGTGTCTCTT, the switch fluorescence ratio was 0.973.
CGTGACCATG showed a switch fluorescence ratio of 0.939.
Sequence TTCTTGCGTG has a switch fluorescence ratio of 1.
For CTCTTCTCGA, the switch fluorescence ratio was 1.06.
AGGTTTTCGG showed a switch fluorescence ratio of 0.978.
TGTATATCTC was tested, and the switch fluorescence ratio was 0.94.
With GTTAAACGTA the switch fluorescence ratio was 1.1.
With CCAATCACAT the switch fluorescence ratio was 1.02.
With CGATTAATAT the switch fluorescence ratio was 1.01.
CTAAACGTAG was tested, and the switch fluorescence ratio was 1.01.
For TCGGTAATGG, the switch fluorescence ratio was 1.12.
With AAGACTTACT the switch fluorescence ratio was 1.17.
GTCGCATACT gave a switch fluorescence ratio of 3.13.
Sequence CTAAAACAC has a switch fluorescence ratio of 1.07.
CACTCCGGGA showed a switch fluorescence ratio of 2.61.
ACCGGAATCA was tested, and the switch fluorescence ratio was 1.11.
In the case of TCAGATGA, the switch fluorescence ratio is reported as 1.06.
Sequence ACGGCAACGC has a switch fluorescence ratio of 1.06.
In the case of CGAATGGTA, the switch fluorescence ratio is reported as 0.987.
Work on CAGGAGGTTC yielded a switch fluorescence ratio of 0.995.
AGAACTTCCC showed a switch fluorescence ratio of 1.22.
In the case of GTGGTTGAGA, the switch fluorescence ratio is reported as 0.978.
GCCTTTCCAC showed a switch fluorescence ratio of 1.17.
For TTGCATATGG, the switch fluorescence ratio was 0.988.
In the case of CCAGTTTCGA, the switch fluorescence ratio is reported as 1.02.
CTGTGTTCGT was tested, and the switch fluorescence ratio was 1.01.
CTGAGTAGAG gave a switch fluorescence ratio of 0.981.
Work on TGATCGAAAG yielded a switch fluorescence ratio of 1.01.
TACAGACAT gave a switch fluorescence ratio of 1.11.
With AACACATTAA the switch fluorescence ratio was 1.03.
ATTGACAGAT showed a switch fluorescence ratio of 1.01.
With TTTACCCCTA the switch fluorescence ratio was 1.1.
With ACTGGGGTTC the switch fluorescence ratio was 1.04.
In the case of AGCTGGGTT, the switch fluorescence ratio is reported as 0.992.
TTTGTGGCG was tested, and the switch fluorescence ratio was 1.13.
GAGTGGATGC gave a switch fluorescence ratio of 0.976.
For ACTAGGACCG, the switch fluorescence ratio was 0.939.
GAGGTTTGAG was tested, and the switch fluorescence ratio was 1.
Sequence GTTTGCGCGG has a switch fluorescence ratio of 0.972.
Work on ACAGGCATTA yielded a switch fluorescence ratio of 1.1.
AGGATATTCC gave a switch fluorescence ratio of 1.06.
For TTACGTTGCG, the switch fluorescence ratio was 1.01.
Sequence TAGAAGAATA has a switch fluorescence ratio of 1.03.
Work on TGATACTAAA yielded a switch fluorescence ratio of 0.991.
Work on ATCCGGTCTT yielded a switch fluorescence ratio of 1.02.
With GACGGGAGTC the switch fluorescence ratio was 0.967.
GTATCAGTCG was tested, and the switch fluorescence ratio was 0.957.
CGTGCGTTGC gave a switch fluorescence ratio of 1.02.
Work on AAAATCCGA yielded a switch fluorescence ratio of 0.989.
Work on TAAAACCATT yielded a switch fluorescence ratio of 1.05.
AGGGAGTTGT showed a switch fluorescence ratio of 0.965.
ATCATCAGGG gave a switch fluorescence ratio of 0.968.
Work on CGGGCGATGA yielded a switch fluorescence ratio of 0.995.
Sequence ATGTAATGTG has a switch fluorescence ratio of 0.996.
GATATTTAGA showed a switch fluorescence ratio of 0.995.
Sequence TGGGAGACAG has a switch fluorescence ratio of 0.964.
In the case of TAATACTTGA, the switch fluorescence ratio is reported as 1.03.
TTGCGTGTAG was tested, and the switch fluorescence ratio was 0.97.
TGGGGCACAC gave a switch fluorescence ratio of 1.03.
For TCTGTGGAGA, the switch fluorescence ratio was 1.02.
For GGCTATGCTT, the switch fluorescence ratio was 0.992.
TCAGGGATAG was tested, and the switch fluorescence ratio was 1.05.
CTACAAACAG gave a switch fluorescence ratio of 1.07.
TGTCGACAAA gave a switch fluorescence ratio of 1.11.
ACGTCCGGAA showed a switch fluorescence ratio of 2.96.
Work on TTAAGCGCCG yielded a switch fluorescence ratio of 0.998.
Sequence GCTTTATTAG has a switch fluorescence ratio of 1.02.
For GTCGCGGATA, the switch fluorescence ratio was 1.01.
Work on CAGTAGCGCT yielded a switch fluorescence ratio of 0.995.
AGCTTGTATG showed a switch fluorescence ratio of 0.995.
In the case of TATCGTGGTC, the switch fluorescence ratio is reported as 0.989.
Sequence CAGGTTCGAG has a switch fluorescence ratio of 1.
For CCTGAAGGGG, the switch fluorescence ratio was 1.03.
CCTTGTTCTT showed a switch fluorescence ratio of 0.989.
For TCTTTTCGCA, the switch fluorescence ratio was 1.22.
CTCCCAACCT gave a switch fluorescence ratio of 1.88.
ACGTGTGCAC gave a switch fluorescence ratio of 0.989.
TCGTAGTTTA showed a switch fluorescence ratio of 1.04.
Work on TCGGCGTCCC yielded a switch fluorescence ratio of 1.08.
CTATTTGCTT showed a switch fluorescence ratio of 1.02.
CACAGGGGAA was tested, and the switch fluorescence ratio was 1.11.
GGTGCAGGG showed a switch fluorescence ratio of 1.
TACGCCTTGG showed a switch fluorescence ratio of 1.01.
In the case of ACTCTTTGTA, the switch fluorescence ratio is reported as 0.989.
Sequence AATCCGGGCT has a switch fluorescence ratio of 1.01.
CTGGTGGCTA showed a switch fluorescence ratio of 0.978.
Sequence GTCGATGTCG has a switch fluorescence ratio of 0.928.
Work on CAGCTAGAAA yielded a switch fluorescence ratio of 0.975.
In the case of ATATGAATGT, the switch fluorescence ratio is reported as 1.
With TGCGCATAA the switch fluorescence ratio was 1.14.
GTGCATCGGG gave a switch fluorescence ratio of 0.968.
With TACTGACAAT the switch fluorescence ratio was 1.14.
ACACTCTGCC was tested, and the switch fluorescence ratio was 1.19.
AACCCTGCTA was tested, and the switch fluorescence ratio was 1.
In the case of TAGTTGCAGG, the switch fluorescence ratio is reported as 1.06.
GGACCAACCT gave a switch fluorescence ratio of 1.33.
With TAGCTGGTCG the switch fluorescence ratio was 1.
In the case of ATTCGGGATT, the switch fluorescence ratio is reported as 1.
In the case of CTAGAAAAAC, the switch fluorescence ratio is reported as 1.39.
ACCGCGGGTC showed a switch fluorescence ratio of 1.06.
TATCAGTTCT was tested, and the switch fluorescence ratio was 1.01.
For CTGTTGATGT, the switch fluorescence ratio was 1.
AAACCGGCCC was tested, and the switch fluorescence ratio was 2.
In the case of TTGGTTT, the switch fluorescence ratio is reported as 1.
In the case of GTGTTCATAC, the switch fluorescence ratio is reported as 4.29.
Work on CAGTCCAGAC yielded a switch fluorescence ratio of 1.02.
With AGAACAGTTC the switch fluorescence ratio was 1.05.
ATCAAATAAT gave a switch fluorescence ratio of 1.05.
Work on TTACATCGAT yielded a switch fluorescence ratio of 1.04.
Sequence ATATGAGCGG has a switch fluorescence ratio of 0.923.
Work on GACAGAGGCA yielded a switch fluorescence ratio of 1.03.
Sequence CCATAGTTTT has a switch fluorescence ratio of 1.01.
TGGCGTGCCG was tested, and the switch fluorescence ratio was 0.961.
ACAATGATG was tested, and the switch fluorescence ratio was 1.03.
For AAAGGAAGCA, the switch fluorescence ratio was 1.02.
GCTGGTATTC showed a switch fluorescence ratio of 1.01.
Work on TAAGTCAAGC yielded a switch fluorescence ratio of 1.05.
ATATGGAA was tested, and the switch fluorescence ratio was 0.946.
